Whole data set: some 110,000 compounds, median “z-score” near -0.1, cut for the highest 2% near 2. This is one part of the list. Activity calls are given as the source filed them.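 The calls were made as follows: active = z-score in the third read window above 3 or below -3; inactive = the rest.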

The test addresses Metabotropic glutamate receptor 8 (Rattus norvegicus) (UniProt P70579). The test can be described thus: rat mGluR8 modulators via GIRK flux, primary screen, cell-based, thallium flux, HTS (AID 488969). Particulars: HEK293 rat mGluR8, GIRK (G protein-gated inwardly rectifying potassium channel) thallium flux, FluoZin2; at 10 µM; stronger effect = higher value; submaximal glutamate (EC20) added with thallium.
UniProt P70579, sequence (P70579 whole entry, looked up): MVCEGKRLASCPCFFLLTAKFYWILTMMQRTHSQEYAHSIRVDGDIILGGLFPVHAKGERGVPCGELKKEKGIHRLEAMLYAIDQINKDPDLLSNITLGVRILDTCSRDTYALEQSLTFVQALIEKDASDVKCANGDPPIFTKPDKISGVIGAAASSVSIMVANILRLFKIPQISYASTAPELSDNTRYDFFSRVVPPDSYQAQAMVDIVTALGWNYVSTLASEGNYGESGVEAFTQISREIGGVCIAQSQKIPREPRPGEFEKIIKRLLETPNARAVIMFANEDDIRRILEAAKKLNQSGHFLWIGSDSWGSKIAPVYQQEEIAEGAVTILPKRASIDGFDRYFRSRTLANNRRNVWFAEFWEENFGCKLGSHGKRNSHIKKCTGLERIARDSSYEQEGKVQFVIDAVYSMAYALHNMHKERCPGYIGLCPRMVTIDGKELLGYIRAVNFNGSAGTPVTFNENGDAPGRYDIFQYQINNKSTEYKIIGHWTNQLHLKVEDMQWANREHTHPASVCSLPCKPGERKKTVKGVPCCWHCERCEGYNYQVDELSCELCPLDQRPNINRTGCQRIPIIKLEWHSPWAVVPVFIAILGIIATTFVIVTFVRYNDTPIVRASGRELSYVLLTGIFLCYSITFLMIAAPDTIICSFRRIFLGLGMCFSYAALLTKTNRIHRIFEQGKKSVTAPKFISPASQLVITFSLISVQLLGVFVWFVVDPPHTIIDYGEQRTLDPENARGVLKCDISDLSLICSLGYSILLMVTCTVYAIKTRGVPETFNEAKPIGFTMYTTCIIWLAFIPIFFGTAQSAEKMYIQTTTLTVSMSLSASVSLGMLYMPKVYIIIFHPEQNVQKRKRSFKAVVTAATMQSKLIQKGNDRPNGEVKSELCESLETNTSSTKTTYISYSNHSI
`Clc1cc(NCc2cccs2)ccc1N1CCOCC1`: the z-score is -0.0119.
`CCN(CC)S(=O)(=O)c1cccc(NC(=O)COC(=O)CCc2nc3ccccc3s2)c1`: the z-score is -0.451.
The value for `Cc1csc(SCC(=O)Nc2cc(S(=O)(=O)N3CCCC3)ccc2Cl)n1` was -0.654; that for `Cn1cnnc1SCC(=O)Nc1cccc(C(=O)O)c1` was 0.58; that for `CN(C)CCCNC(=O)c1cc(Br)ccc1Cl` was -0.48.
The value for `Cn1c(=O)c2c(SCC(N)=O)nc(CC(C)(C)C)nc2n(C)c1=O` was -1.33.
`Cc1cccc(NC2=C(NC(=O)c3ccccc3)C(=O)c3ccccc3C2=O)c1` returned a z-score of -0.389.
The value for `CCOC(=O)CCCCC(=O)c1[nH]c(=O)[nH]c1Cn1cnc2ccccc21` was -0.0693.
The figure for `CSc1c(C#N)c(N)c(C#N)c2c1COC(C)(C)C2` is -1.03; for `CCN(CCCNC(=O)c1[nH]c(C)c(C(C)=O)c1C)c1cccc(C)c1` it is -1.09; for `Cc1ccc(-c2nnc(N3CCCCC3)c3ccccc23)cc1S(=O)(=O)N(C)C` it is -0.192.
The figure for `COc1ccc(S(=O)(=O)Nc2cc(C)ccc2OC)cc1C` is -0.396; for `COc1ccc(-n2c3c(cc(C(=O)N4CCN(CCO)CC4)c2=O)C(=O)CC(C)(C)C3)cc1` it is 0.0856.
With `COc1ccccc1C(=O)/C=C/c1ccc(N2CCCCC2)c([N+](=O)[O-])c1`, the z-score turned out to be 0.232.
The figure for `Cc1cnnc2ccc3c(no[n+]3[O-])c12` is 0.292.
The value for `Cc1ccc(-c2nnn(CC(=O)N3CCN(c4ccccc4)CC3)n2)o1` was 0.183; that for `Cc1ccc(CC23CN4CCN(CC(C4)C2O)C3)c(C)c1` (centres undefined) was 0.287.
The figure for `CCOC(=O)N1CCC(Nc2ncnc3c2cnn3-c2ccc(Cl)cc2)CC1` is -0.158; for `CCC(CC)C1C(C#N)=C(N)Oc2n[nH]c(-c3ccccc3)c21` (centres undefined) it is -0.557; for `Cc1cc(C)nc(N2CCC(C(=O)N3CCN(c4cc(Cl)ccc4C)CC3)CC2)n1` it is 0.224.
Compound `CCC(=O)Nc1nnc(SCC(=O)Nc2ccc(F)cc2)s1` displayed a z-score of -0.976.
`Cc1ccccc1N(CC(=O)NCc1ccncc1)S(C)(=O)=O` returned a z-score of 0.0408.
The value for `CN(c1ccccc1)S(=O)(=O)c1ccc(NC(=O)C2CCCCC2C(=O)O)cc1` (centres undefined) was -0.0354; that for `Nc1nc(N)nc(-c2ccc(Oc3ccccc3)cc2)n1` was -0.35; that for `CC1=C(C(N)=O)C(c2ccc(Cl)cc2Cl)n2ncnc2N1` (centres undefined) was 0.288.
The value for `Cn1c(=O)[nH]c(NC2CCCCC2)c(N=O)c1=O` was -0.267; that for `COc1ccc(NC(=O)c2cncc(Br)c2)c(S(=O)(=O)N2CCOCC2)c1` was 0.95; that for `O=C(CN1CCN(c2ccccc2)CC1)Nc1ccc(OCc2ccccc2)cc1` was 0.0718.
The figure for `Cc1ccc(NC(=O)CN2C(=O)/C(=C3\SC(=S)N(C4CCS(=O)(=O)C4)C3=O)c3ccccc32)cc1` (centres undefined) is 0.389; for `CCN(CC)S(=O)(=O)c1ccc(-c2nnc(SCC(C)=O)o2)cc1` it is 0.094.
`CCOC(=O)c1oc2ccc(S(=O)(=O)n3nc(-c4ccccc4)cc3N)cc2c1C` showed a z-score of -0.0165.
The value for `CCOc1nc(-c2ccc(C)cc2)ccc1-c1noc(-c2cccnc2)n1` was 0.44; that for `CCOC(=O)C1(CCC(C)C)CC(CSc2nc3ccccc3[nH]2)OC1=O` (centres undefined) was 0.321.
The value for `O=C(O)CNc1nc(Cl)ccc1[N+](=O)[O-]` was 0.0424.
The figure for `CCCCOC(=O)Nc1ccc(N2CCOCC2)cc1` is -0.696; for `COc1cccc(C(=O)N(Cc2cc3cc(C)ccc3[nH]c2=O)C(C)C)c1` it is -0.718; for `COc1ccc(-n2c(=O)c3c4c(sc3n3cnnc23)CC(C)CC4)cc1` (centres undefined) it is -1.74.
For the compound `CCCCOC(=O)C1=C(C)Nc2ncnn2C1c1cccc(OC)c1OC` (centres undefined), the z-score was -0.995.
The value for `Cc1cc(C)nc(SCc2cc(=O)c(OC(=O)c3ccc(S(=O)(=O)N(C)C)cc3)co2)n1` was -0.616.
The figure for `CC(C)=CCC/C(C)=C/CC(C)(C)CNCCN1CCNCC1` is -0.0374.
The figure for `Cc1ccc2[nH]c(=O)c(C(c3nnnn3Cc3ccccc3)N3CCc4ccccc43)cc2c1` (centres undefined) is -0.323; for `CCOC(=O)C1CCN(C(=O)c2cccnc2Cl)CC1` it is 0.209.
Turning to `CCc1c(O)cc2n(c1=O)-c1ccccc1C2(C)C`, the z-score was -0.409.
The value for `COc1ccc(-c2cc(C(=O)OCC(=O)c3ccc(C)c([N+](=O)[O-])c3)c3ccccc3n2)cc1` was -0.11; that for `COc1ccc(-c2cc(C(=O)N/N=C/c3ccc4c(c3)OCO4)c3ccccc3n2)c(OC)c1` was -0.128.
The figure for `Cc1cccc(N(CC(N)=O)S(C)(=O)=O)c1C` is -0.72.
The value for `CCc1nnc(SCc2ccc(CSc3nnc(CC)n3N)cc2)n1N` was 0.166.
`COc1ccc(Cl)c(Cn2c(NCc3ccco3)nc3c2c(=O)n(C)c(=O)n3C)c1`: the z-score was -0.0771.
For the compound `O=[N+]([O-])c1cc(-n2cnnn2)ccc1N1CCC(Cc2ccccc2)CC1`, the z-score is -0.164.
The compound `CCCN1Cc2cccc(C(=O)Nc3ccc(-c4nc5ccccc5[nH]4)cc3)c2C1=O` gave a z-score of -0.0402.
The value for `O=C(O)c1cccc(-n2nnnc2SCc2ccccn2)c1` was 0.00567.
In turn, `CCOC(=O)c1sc(NC(=O)c2ccc(S(=O)(=O)N3CCOCC3)cc2)cc1C` gave a z-score of -0.134.
The value for `CCCCCCCC(=O)N/N=C(/C)c1c(O)cc(C)oc1=O` was 0.177.
The value for `O=C(NN=C1CCCCCCCCCCC1)c1cccc(S(=O)(=O)N2CCOCC2)c1` was -0.137.
`CCOC(=O)c1cnn(-c2cc(Oc3ccccc3)ncn2)c1N` came in with a z-score of -0.0804.
The figure for `Cc1cc(OCC(=O)Nc2ccc3c(c2)OCCO3)cc(C)c1Cl` is 0.295; for `O=C(NCc1ccccn1)c1ccc(COc2ccc(Cl)cc2)o1` it is -0.811; for `CCOP(=O)(c1ccc(N(C)C)cc1)C(O)c1ccccc1OC` (centres undefined) it is 0.0739.
The value for `C/C(CC(=O)NCCCN1CCOCC1)=N\NC(=O)COc1ccc(C)cc1` was -0.624; that for `CN(C)CCCNC(=O)Cc1ccc(Br)cc1` was 1.07; that for `COc1ccc(OC)c(C2=NOC(C(=O)NCCN3CCOCC3)C2)c1` (centres undefined) was 0.0749.
The figure for `CCCN(CCC)CCCNc1ccc2nnc(-c3ccc(F)cc3)n2n1` is 0.263; for `COCC(COCCCNC(=O)Nc1ccc(Br)cc1)OC` (centres undefined) it is 0.0356.
`O=S(=O)(NCc1csc(-c2cccnc2)n1)c1ccc(Cl)s1` gave a z-score of 0.124.
The figure for `O=C(COC(=O)CNS(=O)(=O)c1ccc(F)c(F)c1F)Nc1ccc(OC(F)F)cc1` is 0.677; for `Cc1cc(C)cc(-n2nnnc2-c2cn(C)nc2C(F)(F)F)c1` it is -0.187; for `COc1cccc(-n2nnc3c(=O)n(Cc4cccc(F)c4)cnc32)c1` it is -0.071.
The value for `CC1(C)CC(=O)C2=C(C1)NCN(Cc1ccc3c(c1)OCO3)C2` was 0.218; that for `Cc1ccccc1NC(=O)c1c(C)nn(-c2ccccc2)c1Cl` was -0.279; that for `Cc1c(C)c2cc(Cl)c(OCc3nn[nH]n3)cc2oc1=O` was -0.0346.
The value for `O=C(N/N=C/C(Cl)=C/c1ccccc1)c1cnccn1` was 0.219; that for `CC(C)(C)NC(=O)Cn1nnc(-c2ccccc2NC(=O)c2ccco2)n1` was 0.169; that for `Cc1cccc(Nc2ccccc2C(=O)NCc2ccco2)c1C` was -0.199.
`O=C(CSc1nnc(-c2ccc3c(c2)OCO3)o1)Nc1ncc(Cl)cc1Cl` displayed a z-score of -0.299.
The value for `Cn1c(=O)n(CC(=O)N2CCN(c3nnc(-c4ccccc4)c4ccccc34)CC2)c2ccccc21` was 0.153.
The value for `Cc1ccc(-c2nnc3ccc(SCC(=O)NCc4ccco4)nn23)cc1` was -0.802; that for `CCCn1nc2cc(C(=O)NCc3ccc(OC(F)(F)F)cc3)ccc2c1OCC` was -0.872; that for `COc1ccc2c(CSc3nnc(-c4cccnc4)n3-c3ccccc3F)cc(=O)oc2c1` was -0.209.
Take `c1ccc(COc2ccc(OCCn3cncn3)cc2)cc1`: the z-score is -0.123.
As to `CCc1nc(SC)[nH]c(=O)c1C`, the z-score was -0.134.
The value for `CC1CCN(C(=O)c2ccc3c(c2)OCCO3)CC1` was 0.598.
The value for `COc1ccccc1C(=O)NC(=S)/C=C1/N(C)c2ccccc2C1(C)C` was -1.92; that for `O=C1c2cccc3c(N4CCCCC4)ccc(c23)C(=O)N1c1ccc(Cl)cn1` was -2.33; that for `CCn1nc(CC(=O)Nc2nnc(CC(=O)N3CCCC3)s2)c2ccccc2c1=O` was -0.065.
Compound `O=C(CCCOc1ccc(Cl)cc1Cl)N1CCCc2ccccc21` displayed a z-score of -0.0365.
The figure for `O=C(C1CCN(S(=O)(=O)Cc2ccccc2)CC1)N1CCN(c2ncccn2)CC1` is -0.444; for `CCn1c(SCC(=O)N/N=C/C=C/c2ccco2)nnc1-c1ccccc1` it is -0.239; for `CCc1ccc(NC(=O)N(CCN(C)C)C(C)c2cccnc2)cc1` (centres undefined) it is -0.594.
The figure for `CN(CCC#N)C(=O)c1ccc(CNS(=O)(=O)c2ccc(F)cc2)cc1` is 0.116; for `Cc1cc[n+](CCC(=O)O)c2ccccc12` it is 0.137; for `Cc1cccc(C)c1NC(=O)C1=C(O)c2ccccc2N(C)S1(=O)=O` it is 0.0397.
The value for `O=C(C1CC(c2ccc(F)cc2)=NO1)N1CCCCC1` (centres undefined) was -0.0299; that for `O=C(COc1ccccc1)NC1CCCc2ccccc21` (centres undefined) was -0.169.
In the case of `CCC12OC(=N)C(C#N)(C1C)C(C#N)(C#N)C(c1ccccc1)O2` (centres undefined), the z-score turned out to be 0.027.
`CC1CCN(S(=O)(=O)c2ccc(Oc3ccc([N+](=O)[O-])cc3)cc2)CC1`: the z-score was 0.112.
The value for `CC1=CC(C)(C)N(C(=O)CSc2nncn2C)c2ccccc21` was 0.631; that for `N#CC(C(=O)NCCc1ccccc1)c1nc2ccccc2nc1N1CCCCC1` (centres undefined) was -0.0219; that for `CCOC(=O)N1CCC(NC(=O)c2ccc3c(c2)N(C)CCS3)CC1` was -0.163.
The figure for `COc1cccc(OC)c1OCCCOc1ccc(C)cc1Br` is -0.324; for `CCCc1ccc(OCC(=O)NNC(=S)NC(=O)c2ccco2)cc1` it is active: 5.78; for `O=C(Cn1c2c(sc1=O)C1c3ccccc3OCC1CS2)Nc1ccc(Cl)c(Cl)c1` (centres undefined) it is -0.0375.
`O=C(NCc1ccc(Cl)cc1)c1ccc(Br)o1` gave a z-score of -0.241.
The figure for `C(=N\Nc1nc(-c2ccccc2)cs1)/c1cccnc1` is -0.215; for `COC(=O)NNC(=O)/C=C/c1ccccc1` it is -0.0867.
The value for `Cc1ccccc1C(=O)Nc1ccc2c(C#N)c3nc4ccccc4nc3n2c1` was -0.0106; that for `COc1ccc(C2C(C#N)=C(N)OC3=C2C(=O)CCC3)cc1Cn1cc([N+](=O)[O-])cn1` (centres undefined) was -0.148; that for `O=C(c1cc2nc(C3CC3)cc(C(F)F)n2n1)N1CCOCC1` was -0.285.
The figure for `COc1ccc(-n2c(=O)cc(N3CCOCC3)[nH]c2=O)cc1` is 0.418; for `C=CCn1c(-c2ccc(OC)cc2)nc2ccccc21` it is -0.63.
